Each structure is given as a SMILES string. This is one part of the list.

The test system of this test is T1, C. trachomatis L2/434/Bu expressing GFP (CTL2-GFP).
T1 construct: L2/434/Bu GFP intracellular growth in HeLa cells
The arrangement: species or system HeLa; C. trachomatis total inclusion area by high-content imaging, normalised to DMSO. Conditions: total inclusion area; 28.5 h, 10 µM; inhibitor. In outline:
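After bulk GFP and resorufin fluorescence reads, cells were fixed, stained with Hoechst and imaged by high-content microscopy. Inclusion area and number (GFP) stood in for chlamydial growth, nuclei count (Hoechst) for host cell viability. MICs were derived as for the bulk readout.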
`CC(Oc1ccc(C(C)(C)C)cc1)C(=O)Nc1nnc[nH]1` (stereo not shown) [CBK267431]: the “% of control remaining” value is reported as 106.585.

With `Cc1cccc(-c2ccc3c(c2)C(=O)N2CC[C@H](NC(=O)c4cnccn4)[C@H]2C(=O)N3)c1C` [CBK289348], the “% of control remaining” value worked out at 97.5191.

`COc1ccc2ncc(C(=O)O)c(Nc3ccccc3C)c2c1` [CBK269522C]: the “% of control remaining” value is 101.883.

Consider `O=C(Nc1cccnc1)N1CCCC(CO)C1` (stereo not shown) [CBK156068], for which the “% of control remaining” value came to 84.6598.

In the case of `N#Cc1c(NC(=O)CN2CCCCC2)sc2c1CCCC2` [CBK261619], the “% of control remaining” value is 105.724.

Regarding `FC(F)Oc1ccc(NC(=S)NCCN2CCOCC2)cc1` [CBK028000], the “% of control remaining” value is listed as 77.9882.

As for `CN(C)S(=O)(=O)c1ccc(C(=O)Nc2ccccc2O)cc1` [CBK267809], the “% of control remaining” value was found to be 105.655.

`O=C1CCCCCC1C(Nc1ccc2ccccc2c1)c1cccnc1` (stereo not shown) [CBK293919]: the “% of control remaining” value came out at 86.0239.

Take `CCn1cc(CN2CCOC(c3cccc(-c4ccc(OC)cc4)n3)C2)c(C)n1` (stereo not shown) [CBK286250]: the “% of control remaining” value came out at 113.818.

Regarding `COc1cccc(CNc2ccc(N3CCOCC3)cc2)c1OCc1ccccc1F` [CBK074406], the “% of control remaining” value was found to be 44.0052.

Take `CCCC(=O)c1ccc(S(=O)(=O)N2CCCN(Cc3c(C)[nH]c(C(=O)OCC)c3C)CC2)cc1` [CBK062947]: the “% of control remaining” value is 87.9917.

In the case of `CN(C(=O)c1ccc2c(c1)NC(=O)CS2)c1ccccc1` [CBK296612], the “% of control remaining” value is reported as 87.9012.

For the compound `CCOc1ccc(CN(C)CC(=O)Nc2cc(C)no2)cc1` [CBK305605], the “% of control remaining” value is on record as 20.5513.

With `CC(C)(C)OC(=O)NC1CCC(NCc2ccncc2)CC1` (stereo not shown) [CBK056688], the “% of control remaining” value came to 82.0274.

With `Cc1ncc(-c2ccc3ccccc3c2)s1` [CBK019439B], the “% of control remaining” value turned out to be 108.499.

Turning to `COc1cc(C(=O)N2CCC3(CC2)CC(=O)c2ccc(C)cc2O3)cc(-c2ccc(OC)c(OC)c2)c1` [CBK168282], the “% of control remaining” value is recorded as 121.832.

For the compound `COc1ccccc1C(=O)Nc1ccccc1N1CCN(C)CC1` [CBK267938], the “% of control remaining” value is 94.2554.

In the case of `CCNc1n[nH]c(N)c1-c1nc(-c2ccc(OC)cc2)no1` [CBK288557], the “% of control remaining” value worked out at 94.3577.

Turning to `COc1cc(S(=O)(=O)NCCCn2ccnc2)ccc1Cl` [CBK269186], the “% of control remaining” value was determined as 95.3192.

Take `O=C(NC1(C#Cc2cnc3ccccc3c2)CCCCC1)C1CCCO1` (stereo not shown) [CBK283085]: the “% of control remaining” value amounted to 93.1033.

Turning to `O=S(=O)(NCCN1CCCC1)c1cccc2nsnc12` [CBK261132], the “% of control remaining” value was 98.5012.

With `Cc1c(CCC(=O)N2CCCC(C(=O)O)C2)c(=O)oc2c(C)c(O)ccc12` (stereo not shown) [CBK286764], the “% of control remaining” value is listed as 92.1105.

For `CC1=NN(c2ccc([N+](=O)[O-])cc2)C(=O)/C1=C/NCCN1CCN(C(=O)c2ccc(F)cc2)CC1` [CBK262920], the “% of control remaining” value worked out at 73.1541.

Turning to `O=C(Nc1ccc(S(=O)(=O)Nc2nccs2)cc1)c1cc(-c2cccnc2)nc2ccc(Cl)cc12` [CBK267721], the “% of control remaining” value is recorded as 89.8133.

Regarding `S=c1[nH]nc(Nc2ccccc2)n1-c1ccccc1` [CBK026332], the “% of control remaining” value was found to be 116.818.

As to `NCCCNCCOc1ccc(Cl)c(Cl)c1` [CBK268631C], the “% of control remaining” value was 62.3109.

Take `Cc1onc(-c2ccccc2)c1CNC(=O)c1cccnc1` [CBK144100]: the “% of control remaining” value amounted to 84.7555.

Take `Fc1cccc2sc(Nc3nc(-c4ccccn4)cs3)nc12` [CBK287479]: the “% of control remaining” value is 62.947.

Turning to `CCOC(=O)c1cccnc1-c1ccc(OC)c(OC)c1` [CBK149240], the “% of control remaining” value was 92.0264.

`CCN(CC)S(=O)(=O)c1ccc(Cl)c(C(=O)Oc2cccc3cccnc23)c1` [CBK263205]: the “% of control remaining” value is on record as 104.577.

As for `N#Cc1c(NC(=O)C(=O)NCc2cccnc2)sc2c1CCCC2` [CBK269485], the “% of control remaining” value was found to be 125.099.

On to `CN1CCC[C@H]1C(=O)Nc1nc2c(s1)C(=O)CC(C)(C)C2` [CBK144101], for which the “% of control remaining” value stood at 75.9661.

Regarding `CC(CN1CCCCC1)OC(=O)COc1ccc(F)cc1` (stereo not shown) [CBK058066C], the “% of control remaining” value is reported as 110.771.

For `CCOc1ccc(-c2cncc(NC3CCC(O)CC3)n2)cc1` (stereo not shown) [CBK065877], the “% of control remaining” value was found to be 76.2308.

Take `COc1ccc(-c2ccccc2CC2(C(=O)NCc3cccs3)CCOCC2)cc1` [CBK286429]: the “% of control remaining” value was found to be 112.732.

For the compound `Nc1cccc(-c2nc(-c3cncnc3)cnc2N)c1` [CBK063907], the “% of control remaining” value is given as 103.165.

`O=C(O)C1CCCN(C(=O)NCc2ccc3c(c2)OCO3)C1` (stereo not shown) [CBK161346]: the “% of control remaining” value is given as 75.4897.

Turning to `CCCC(=O)N1CCn2c(nnc2-c2cncc(Br)c2)C1` [CBK304761], the “% of control remaining” value is recorded as 90.0716.

Consider `COc1cc2[nH]c(=S)n3nc(-c4ccncc4)nc3c2cc1OC` [CBK288559], for which the “% of control remaining” value amounted to 98.2775.

For the compound `Cc1ccc(-c2nnc(C3CCCN(C(=O)C4CC4)C3)o2)s1` (stereo not shown) [CBK285516], the “% of control remaining” value is 113.405.

Turning to `O=[N+]([O-])c1ccc(Oc2cccc3cccnc23)c(C(F)(F)F)c1` [CBK002739], the “% of control remaining” value was 90.8179.

`O=C(NC1CCCC1)c1ccc(-c2cnc3[nH]c(=O)n(CCCN4CCOCC4)c3n2)cc1` [CBK064829]: the “% of control remaining” value stood at 80.9837.

Consider `Cn1nccc1C(=O)NC(Cc1cccs1)c1nccs1` (stereo not shown) [CBK285055], for which the “% of control remaining” value is 97.5124.

Regarding `O=C1c2ccccc2CN1c1cccc2ccccc12` [CBK113190], the “% of control remaining” value is reported as 94.0112.

Turning to `CCN1CC2(CCN(Cc3cccc(-c4ccccn4)c3)CC2)CC1=O` [CBK307399], the “% of control remaining” value turned out to be 52.9917.

`CN(C)c1cccc(-c2cncc(NCCCN3CCOCC3)n2)c1` [CBK065635]: the “% of control remaining” value was 127.305.

As to `CN(C)C(=O)c1cccc(NC(=O)C2CCCCC2)c1` [CBK304515], the “% of control remaining” value worked out at 45.6537.

Turning to `Cc1nccn1CC1(O)CCN(C(=O)C2(c3ccccc3)CC2)CC1` [CBK284659], the “% of control remaining” value amounted to 85.2744.

Regarding `O=C(O)c1ccccc1C1Nc2ccccc2S(=O)(=O)N1Cc1ccccc1` (stereo not shown) [CBK286587], the “% of control remaining” value is reported as 77.7192.

In the case of `COc1cccc(CN2CCCN(c3nccc(OCC4COc5ccccc5O4)n3)CC2)c1OC` (stereo not shown) [CBK115476T], the “% of control remaining” value came out at 95.3443.

Take `OC(CNc1nccnc1-c1ccco1)COc1ccccc1` (stereo not shown) [CBK036862]: the “% of control remaining” value stood at 128.421.

`O=C(Nc1ccccc1C(=O)O)c1ccc(S(=O)(=O)N2CCCCC2)cc1` [CBK265174]: the “% of control remaining” value is on record as 78.5348.

Source of the values: publication PMC12040169 (PLOS Biology, 2025).
